Measured values as given in PubChem BioAssay AID1508623 (National Center for Advancing Translational Sciences (NCATS), 2021).
The whole screen tested about 48,000 compounds, of which about 450 (0.94%) were called active. Another 19% or so got no clear call; they are omitted. Calls follow the shape of the dose curve; as a rule, active = well fitted inhibition curve with a large enough effect; inconclusive = small, poorly fitted or top-dose-only effect; inactive = no such curve, though single readings can be large or run the other way. The list shows a part of the results.

Test: Primary qHTS for Identification of Small Molecule Inhibitors of Huntingtin Promoter Activity; also: nearly all actives have a fitted effect of over 50% in size
Details: HEK293 HTT promoter firefly luciferase reporter (activity 0% = vehicle and -100% = no light), 24 h; series mostly up to 57.5 µM; activity change, negative = inhibition: at the top concentration
Description: Assay Provider: Russell L. Margolis M.D.
Department Neurology, Johns Hopkins University School of Medicine, Baltimore, MD
Huntington's Disease (HD) is a neurodegenerative disorder caused by a CAG repeat expansion in exon 1 of huntingtin (HTT). While there are currently no disease-modifying treatments for HD, recent efforts have focused on development of nucleotide-based therapeutics to lower HTT expression. As an alternative to siRNA or oligonucleotide methods, we hypothesized that suppression of HTT expression might be accomplished by small molecules that either (1) directly decrease HTT expression by suppressing HTT promoter activity or (2) indirectly decrease HTT expression by increasing the promoter activity of HTT-AS, the gene antisense to HTT that appears to inhibit expression of HTT.
We developed and employed a high throughput screen for modifiers of HTT and HTT-AS promoter activity using luminescent reporter HEK293 cells; of the 52,041 compounds tested, we identified 898 replicable hits. We used a rigorous stepwise approach to assess compound toxicity and the capacity of the compounds to specifically lower huntingtin protein in 5 different cell lines, including HEK293 cells, HD lymphoblastoid cells, mouse primary neurons, HD iPSCs differentiated into cortical-like neurons, and HD hESCs. We found no compounds which were able to lower huntingtin without lowering cell viability in all assays, though the potential efficacy of a few compounds at non-toxic doses could not be excluded.
SEQUENCE No. (1, 2, 3, etc.); […] (e.g., Cells, Incubation, Reagent, etc.); VALUE and DESCRIPTION.
1; Reagent; 4 uL; 2,500 Hek293 luciferase reporter cells per wells
3; Compound; 23 nL; Control inhibitor / compound library
5; Reagent; 2.5 uL; Firefly Luc reagent; Dual-Glo Luciferase Reporter Assay System (Promega)
6; Time; 10 min; room temperature incubation
7; Detection; Luminescence; FLuc
NOTES (numbers refer to sequence above)
1; High-throughput screening, measuring luminescence from a Hek293 luciferase reporter, was performed in 1,536 well white-walled tissue-culture treated plates. 2,500 cells were plated in 4 µL of Opti-MEM per well using a Multidrop Combi Reagent Dispenser (ThermoFisher).
2; Assay plates were cultured for 24 hours.
3; Control inhibitor (PTC124; final concentration of 50 uM) and compound library (at final concentrations of 460 nM - 57.5 uM) were added to the assay plate using the Kalypsis Pintool Robotic System equipped with 1536 pinheads.
4; Cells were then incubated for 24 hours at 37 degrees C prior to luminescence measurements.
5; In all cases, luminescence was measured using the Dual-Glo Luciferase Reporter Assay System (Promega) following the manufacturer's instructions.
6; Room temperature incubation.
7; Luminescence signal was obtained using the PerkinElmer ViewLux plate reader. Results were normalized to vehicle control (0% activity) and zero RLU (-100% activity).

Activity change, negative = inhibition, inactive:
Cc1cc(C)cc(N(CC(=O)NCc2ccccc2Cl)S(=O)(=O)c2c(C)[nH]c(=O)[nH]c2=O)c1 -12%, Cc1noc(Cn2c(=O)c3ccccc3n(CC(=O)Nc3ccc(C(C)C)cc3)c2=O)n1 -20.8%, CCN(CC)CCCNC(=O)CN1C(=O)COc2ccc(S(=O)(=O)N3CCC(C)CC3)cc21 -12.5%, CC(Nc1oc(-c2ccc(COc3ccc(Cl)cc3)o2)nc1C#N)c1ccccc1 (centres undefined) -17%, CCN(CC)c1ccc(NC(=O)CN2C(=O)c3cccnc3Oc3ccc(Cl)cc32)c(C)c1 3.71%, O=C(NCc1ccccc1)c1ccc2c(c1)nc1n2CCOC1 22%, COCCNC(=O)CSc1nnc2[nH]c(=O)cc(C)n12 -6.73%, C[N+]1(C)CCCC(OC(=O)C(O)(c2ccccc2)c2ccccc2)C1 (centres undefined) -9%, CCOC(=O)Cn1c(=O)n(CC2CCCO2)c2nc(-c3c(F)cccc3Cl)nc(C(N)=O)c21 (centres undefined) -16.8%, CCn1c(=O)c2sccc2n2c(CCCC(=O)Nc3ccc(OC)c(OC)c3)nnc12 -15.1%, CCOC(=O)c1ccc(NC(=O)c2cc3c([nH]c2=O)CC(c2ccccc2)CC3=O)cc1 (centres undefined) -0.278%, N#C/C(=C1\SCC(c2ccccc2Cl)S1)n1ccnc1 (centres undefined) -7.02%, COc1ccc(-n2cc(-c3ccc4c(c3)OCO4)n(CC(=O)Nc3cccc(C)c3)c2=O)cc1 -13.2%, CCCCC1CCC(CCCC(C)CCC(=O)O)CC1 (centres undefined) -27.4%, COc1cccc(-c2n[nH]c3c2C(c2ccccn2)N(C)C3=O)c1 (centres undefined) -0.162%, O=C(CC1N=C2c3ccccc3N=C(SCC(=O)Nc3ccc(F)cc3)N2C1=O)NCc1ccc2c(c1)OCO2 (centres undefined) 1.98%, Cc1ccccc1Cn1c(SCc2ccc(C(=O)NCCc3ccccc3)cc2)nc2ccncc21 -20.2%, Cc1cc(C)n(C(C)CC(=O)Nc2ccc(C)c(F)c2)n1 (centres undefined) -7.38%, CSc1ncc(Cl)c(C(=O)N(Cc2ccc(C(C)C)cc2)C2CCS(=O)(=O)C2)n1 (centres undefined) -27.3%, CC(C)CCNc1ncnc2c1cnn2-c1cccc(Cl)c1 -17.5%, Cc1ccccc1C(c1c(C)n(C)n(-c2ccccc2)c1=O)c1c(C)n(C)n(-c2ccccc2)c1=O -8.95%, Cc1ccc(-n2c(SCC(=O)Nc3c(C)cccc3C)nc(O)c(C)c2=O)cc1 -10.2%, CCC1CN(C(=O)N2CCC(C(=O)NCc3ccco3)CC2)c2ccccc2O1 (centres undefined) 8.05%, COCCNC(=O)C(=O)NCC(c1cccnc1)N1CCN(c2ccccc2)CC1 (centres undefined) -22.9%, CCOc1ccc2c(c1)c(=O)c(C(=O)c1ccc(C)cc1)cn2Cc1ccccc1OC -31.2%, CO[C@@]1(NC(=O)Cc2cccs2)C(=O)N2C(C(=O)O)=C(COC(N)=O)CS[C@@H]21 4.26%, CCOc1ccccc1NC(=O)CN1C(=O)C2(SCC(=O)N2c2ccc(C)cc2)c2ccccc21 (centres undefined) -25.2%, CC(=O)c1cccc(NC(=O)N2CCC(CN3CCCCC3)CC2)c1 -8.1%, CC(C)c1ccc(NC(=O)Cn2c(=O)n(Cc3nc(-c4ccccc4)no3)c(=O)c3cc4c(cc32)OCO4)cc1 9.32%, N#CC(=Cc1ccc(O)c(O)c1)C(=O)NCc1ccccc1 6.44%, Cc1cc(C)c(CN2C(=O)c3ccccc3S(=O)(=O)c3ccc(C(=O)OCC4CCCO4)cc32)c(C)c1 (centres undefined) -16.7%, Cc1ccc(-n2ncc3c(=O)n(Cc4ccccc4C)cnc32)cc1C -10.4%, CCCN(Cc1cccs1)C(=O)Nc1ccc(F)c(Cl)c1 -0.27%, COc1cc(Cl)c(NC(=O)C(NS(=O)(=O)c2cccs2)C(C)C)c(OC)c1 (centres undefined) -13.5%, CS(=O)(=O)N1CCc2cc(C(=O)Nc3ccc(S(N)(=O)=O)cc3)ccc21 -14.9%, CC(=O)c1ccc2c(c1)N(CCCN1CCC(CCO)CC1)c1ccccc1S2 -1%, Cc1cccc(C(=O)OCc2cc(=O)n3nc(-c4cccs4)sc3n2)c1 -11.1%, CCCSc1nnc2n(-c3cccc(C)c3)c(=O)c3c4c(sc3n12)CCCC4 -3.04%, Cc1ccc(C)c(NC(=O)Cn2c(=O)n(Cc3ccc4c(c3)OCO4)c(=O)c3ccccc32)c1 -9.45%, Cc1ccc(-n2ncc(C(=O)NCCCN3CCN(C)CC3)c2C2CCN(C(=O)OC(C)(C)C)CC2)c(C)c1 -7.43%, CC(C)(C)OC(=O)N1CCC(c2c(C(=O)N3CCCCC3)cnn2-c2ccc(F)cc2F)CC1 -14.2%, O=C(CCn1cnc2onc(-c3ccc(F)cc3)c2c1=O)N1CCN(c2ccccc2F)CC1 2.21%, Cc1ccc2c(CC(=O)N(Cc3cccc(Cl)c3)C3CCS(=O)(=O)C3)coc2c1 (centres undefined) -31.7%, CNS(=O)(=O)c1cn(CC(=O)N2CCN(c3ccccc3OC)CC2)cc1S(=O)(=O)NC 5.37%, CCOC(=O)C1CCCN(C(=O)c2ccc(NC(=O)c3nsc4ccccc34)cc2)C1 (centres undefined) 14.6%, COC(=O)c1ccccc1NC(=O)Cn1c(=O)cc(C)c2c(C)nn(-c3cccc(Cl)c3C)c21 3.34%, COc1ccc(Cl)cc1NC(=O)Cn1cnc2sc(C)c(S(=O)(=O)N3CCN(c4ccccc4OC)CC3)c2c1=O -4.81%, O=C(CC1Nc2cccc3cccc(c23)NC1=O)Nc1ccc(F)cc1 (centres undefined) 0%, N#Cc1cccc(NC(=O)CCNS(=O)(=O)c2ccc3c(c2)CCN3C(=O)C2CC2)c1 -6.05%, O=C(Nc1nnc(S(=O)(=O)N2CCc3ccccc32)s1)c1ccccc1Cl -25.1%, CCOC(=O)c1c(C)[nH]c(CCC(=O)NCCCN2CCN(c3ccccc3F)CC2)c1C -14.2%, Cc1cc(C)cc(-n2ccnc2SCC(=O)Nc2nc3ccc(C)cc3s2)c1 -1.51%, COc1ccc(-c2nc(Cn3c(=O)cc(C)c4c(C)nn(-c5ccccc5)c43)c(C)o2)c(OC)c1 -17.3%, CN(C)c1ccc(CNC(=O)Cn2ccc3cc(S(=O)(=O)N4CCCCCC4)ccc32)cc1 -27.5%, c1coc(-c2nc3ccccn3c2Nc2ccc3c(c2)OCCO3)c1 -7.67%, CCOc1ccc(NC(=O)CCS(=O)(=O)c2ccc3nc(C)sc3c2)cc1 -1.46%, Cc1ccc(Cn2c(SCc3ccc(C(=O)NCCc4ccccc4)cc3)nc3ccncc32)cc1 -23.9%, COc1ccc(-n2c(=O)c3sc4ccccc4c3n(CC(=O)N3CCCC3)c2=O)cc1 -9.51%, CCn1cc(S(=O)(=O)c2cccc(C)c2)c(=O)c2cc(F)c(N3CCCCC3C)cc21 (centres undefined) -10.9%, COc1ccc(-c2cn3c(n2)sc2cc(C(=O)Nc4ccccc4F)ccc23)cc1 -0.363%, CCc1ccc2occ(CC(=O)Nc3c(C(=O)Nc4ccc(Cl)cc4)oc4ccccc34)c2c1 -11%, CN(C)CCNC(=O)c1ccc2nc(CCc3ccccc3)oc2c1 8.04%, Cc1ccc(CNC(=O)C(=O)NCC(c2cccs2)S(=O)(=O)c2cccs2)cc1 (centres undefined) -28.3%, CCSc1nc2c([nH]c3ccccc32)c(=O)n1-c1ccc(OC)cc1 0.33%, O=C(O)CCCC(=O)N1CCc2cc(S(=O)(=O)NCc3ccccc3)ccc21 -1.89%, Cc1cccc(NC(=O)CCNS(=O)(=O)c2ccc3c(c2)CCCC(=O)N3)c1C -11.4%, CC1CCCN(c2ncnc3c2nc2n3CCCCC2)C1 (centres undefined) 36.2%, CN(C)c1ccc(CNc2nc(-c3ccco3)nn2S(C)(=O)=O)cc1 36.8%, CN(C)c1ccc(NC(=O)Cn2c(SCc3ccc(F)cc3)nc3cccnc32)cc1 -19.6%, Cc1ccccc1Cn1c(=O)n(CCCCC(=O)NCCc2ccccc2)c(=O)c2ccccc21 1.55%, CCc1ccc(NC(=O)CSC2=Nc3ccccc3C3=NC(CC(=O)NCc4ccc5c(c4)OCO5)C(=O)N23)cc1 (centres undefined) 0%, CCCC(=O)Nc1ccc(NC(=O)c2sc3ccccc3c2Cl)cc1 -13.6%, COCCn1c(SCC(=O)c2ccccc2)nc2cc(C(=O)NC3CCCC3)ccc2c1=O -4.2%, COc1ccc(NC(=O)CN(c2cccc(C)c2C)S(=O)(=O)c2ccccc2)cc1OC -19.9%, CC(=O)c1cccc(NC(=O)c2noc3c2CC(C)CC3)c1 (centres undefined) 49.6%, CCOC(=O)CSC1=Nc2ccccc2C2=NC(CCC(=O)NCc3ccccc3)C(=O)N12 (centres undefined) -12.2%, COc1ccc(C(=O)N2CCN(C(=O)COc3ccc(Br)cc3)CC2)cc1OC -12.8%, CCCCN(C)CCCNC(=O)Cn1nc(CC)n2c(cc3sc(C)cc32)c1=O -2.81%, COc1cc2c(=O)c(S(=O)(=O)c3ccc(C)cc3)cn(Cc3cccc(C)c3)c2cc1OC -19.2%, CC1CN(C(=O)N2CCC(C(=O)NCCC3=CCCCC3)CC2)c2ccccc2O1 (centres undefined) 0.0202%, O=C(CSc1nnc(-c2cccs2)o1)Oc1ccc(Cl)cc1 -18.5%, CCCCNC(=O)C1CCCN(c2nnc(C)c3c(C)n(-c4ccc(Cl)cc4)nc23)C1 (centres undefined) -20.2%, CC(C)c1ccc(S(=O)(=O)Nc2ccc(O)c(Sc3nc4ccccc4s3)c2)cc1 -26.3%, CSc1cccc(NC(=O)C2CCN(S(=O)(=O)c3ccc4[nH]c(=O)ccc4c3)CC2)c1 -9.27%, CCOC(=O)C1(C)C=C(Nc2ccc(C)cc2)C(=O)N1c1ccccc1 (centres undefined) -4.4%, CCN(CC)CCN(C(=O)c1ccc(C(=O)OC)cc1)c1nc2ccc(Cl)cc2s1 -23.4%, CCOc1ccccc1NC(=O)c1ccc2c(c1)CCCN2S(C)(=O)=O 1.14%, COCCNc1cc(N2CCN(C3CCCCC3)CC2)c2noc3c2c1C(=O)c1ccccc1-3 -1.25%, O=C(C1COc2ccccc2O1)N(Cc1cccnc1)c1nc2c(F)cc(F)cc2s1 (centres undefined) -3.11%, O=C(Nc1ccc2nn(-c3ccc(F)cc3)nc2c1)c1cccc2c(Cl)cccc12 -17.2%, Cc1ccc(Cl)cc1N1CCN(C(=O)c2c(C)oc3ncnc(N4CCOCC4)c23)CC1 -12.8%, COC(=O)c1cccc(Nc2c(-c3cc(Br)ccc3O)nc3nc[nH]n23)c1 -7.14%, Cc1cc(C)cc(OCC(=O)Nc2ccc(-c3nc4ncccc4o3)cc2C)c1 -0.323%, CCOc1ccccc1NC(=O)c1c(NCc2ccc(OC)c(OC)c2OC)sc2c1CCC(C)C2 (centres undefined) -15.5%
